To fix the notation:
B1: GPR68, Q15743 (parent)
chain: MGNITADNSSMSCTIDHTIHQTLAPVVYVTVLVVGFPANCLSLYFGYLQIKARNELGVYLCNLTVADLFYICSLPFWLQYVLQHDNWSHGDLSCQVCGILLYENIYISVGFLCCISVDRYLAVAHPFRFHQFRTLKAAVGVSVVIWAKELLTSIYFLMHEEVIEDENQHRVCFEHYPIQAWQRAINYYRFLVGFLFPICLLLASYQGILRAVRRSHGTQKSRKDQIQRLVLSTVVIFLACFLPYHVLLLVRSVWEASCDFAKGVFNAYHFSLLLTSFNCVADPVLYCFVSETTHRDLARLRGACLAFLTCSRTGRAREAYPLGAPEASGKSGAQGEEPELLTKLHPAFQTPNSPGSGGFPTGRLA

In data set [1] the parent is B1. Nature of the data set: cAMP reporter score (Enrich2 score, wild type = 0); higher = more signal; HEK293T, FACS bins.
The variants in data set [2] derive from B1. The data set is described as follows: surface expression score (Enrich2 score, wild type = 0); higher = more signal; HEK293T, FACS bins.

Scores whose standard error is large were omitted. Not listed are two conditions whose scores span a narrow range. Names with del lack the residues named; names with ins carry added residues between the positions named. For some of these results: The data file names ogerin without a concentration.

For the variant MGNITADNSSMSCTIDHTIHQTLAPVVYVTVLVVGFPANCLSLYFGYLQIKARNELGVYLCNLTVADLFYICSLPFWLQYVLQHDNWSHGDLSCQVCGILLYENIYISVGFLCCISVDRYLAVAHPFRFHQFRTLKAAVGVSVVIWAKELLTSIYFLMHEEVIEDENQHRVCFEHYPIQAWQRAINYYRFLVGFLFPICLLLASYQGILRAVRRSHGTQKSRKDQIQRLVLSTVVIFLACFLPYHVLLLVRSVWEASCDFAKGVNNAYHFSLLLTSFNCVADPVLYCFVSETTHRDLARLRGACLAFLTCSRTGRAREAYPLGAPEASGKSGAQGEEPELLTKLHPAFQTPNSPGSGGFPTGRLA [F265N], the cAMP reporter score in data set [1] (pH 5.5) was -0.937; in data set [1] (pH 6) it was 0.286; in data set [1] (pH 6, modulator: ogerin), -0.729; in data set [1] (pH 6.5, modulator: ogerin), -0.703. Moreover, in data set [2], the surface expression score came to 2.91.
The matching figures for MGNITADNSSMSCTIDHTIHQTLAPVVYVTVLVVGFPANCLSLYFGYLQIKARNELGVYLCNLTVADLFYICSLPFWLQYVLQHDNWSHGDLSCQVCGILLYENIYISVGFLCCISVDRYLAVAHPFRFHQFRTLKAAVGVSVVIWAKELLTSIYFLMHEEVIEDENQHRVCFEHYPIQAWQRAINYYRFLVGFLFPICLLLASYQGILRAVRRSHGTQKSRKDQIQRLVLSTVVIFLACFLPYHVLLLVRSVWEASCDFAKGVQNAYHFSLLLTSFNCVADPVLYCFVSETTHRDLARLRGACLAFLTCSRTGRAREAYPLGAPEASGKSGAQGEEPELLTKLHPAFQTPNSPGSGGFPTGRLA [F265Q]: 1.07, 0.64, 0.234, -0.583 and 2.21.
The matching figures for MGNITADNSSMSCTIDHTIHQTLAPVVYVTVLVVGFPANCLSLYFGYLQIKARNELGVYLCNLTVADLFYICSLPFWLQYVLQHDNWSHGDLSCQVCGILLYENIYISVGFLCCISVDRYLAVAHPFRFHQFRTLKAAVGVSVVIWAKELLTSIYFLMHEEVIEDENQHRVCFEHYPIQAWQRAINYYRFLVGFLFPICLLLASYQGILRAVRRSHGTQKSRKDQIQRLVLSTVVIFLACFLPYHVLLLVRSVWEASCDFAKGVMNAYHFSLLLTSFNCVADPVLYCFVSETTHRDLARLRGACLAFLTCSRTGRAREAYPLGAPEASGKSGAQGEEPELLTKLHPAFQTPNSPGSGGFPTGRLA [F265M]: -0.557, -0.589, -0.729, -0.013 and 0.696.
For MGNITADNSSMSCTIDHTIHQTLAPVVYVTVLVVGFPANCLSLYFGYLQIKARNELGVYLCNLTVADLFYICSLPFWLQYVLQHDNWSHGDLSCQVCGILLYENIYISVGFLCCISVDRYLAVAHPFRFHQFRTLKAAVGVSVVIWAKELLTSIYFLMHEEVIEDENQHRVCFEHYPIQAWQRAINYYRFLVGFLFPICLLLASYQGILRAVRRSHGTQKSRKDQIQRLVLSTVVIFLACFLPYHVLLLVRSVWEASCDFAKGVPNAYHFSLLLTSFNCVADPVLYCFVSETTHRDLARLRGACLAFLTCSRTGRAREAYPLGAPEASGKSGAQGEEPELLTKLHPAFQTPNSPGSGGFPTGRLA [F265P], the cAMP reporter score was -0.967 in data set [1] (pH 5.5); -0.196 in data set [1] (pH 6); -0.788 in data set [1] (pH 6.5, modulator: ogerin). Besides, in data set [2], the surface expression score is -1.26.

The values are drawn from the GPR68 mutational scans of Howard et al. (2025).
